Sequences and labels used below:
B1: TEV protease; numbered along this chain (parent)
chain: MGESLFKGPRDYNPISSSICHLTNESDGHTTSLYGIGFGPFIITNKHLFRRNNGTLVVQSLHGVFKVKDTTTLQQHLVDGRDMIIIRMPKDFPPFPQKLKFREPQREERICLVTTNFQTKSMSSMVSDTSCTFPSGDGIFWKHWIQTKDGQCGSPLVSTRDGFIVGIHSASNFTNTNNYFTSVPKNFMELLTNQEAQQWVSGWRLNADSVLWGGHKVFMVKPEEPFQPVKEATQL

This experiment covers variants of B1. The experiment in a line: raw area under fraction-flipped curve 0-4 h after induction (AUC4h, not background-subtracted), DNA-recorder readout of cleavage of the substrate (dimensionless); higher = more cleavage of the substrate by the protease variant. Particulars: temperature: 34 °C; time window: 0-4 h after rhamnose induction. As for the experimental part: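 In vivo DNA recorder in E. coli TOP10(DE3) ΔrhaA at 34 °C. Each TEVp single-site mutant (parent TEVp 0) is paired with a single-site variant of the 7-mer TEVs (canonical ENLYFQ|S). The substrate sits between flexible linkers in a Bxb1-sfGFP-TEVs-SsrA fusion, so cleavage stabilises Bxb1 and speeds flipping of a recombination array, read by NGS. The value is the raw area under the fraction-flipped curve over 0-4 h after rhamnose induction (AUC4h), with ≥20 reads per time point. It is not background-subtracted; inactive controls average about 0.047.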

The list shows a part of the results. The full chains were built here from the parent and the listed change. Inactive controls read about 0.05.
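Further: Bxb1 expression induced with 0.2% (w/v) L-rhamnose at OD600 near 0.5, cultures sampled hourly, flipped fraction per protease–substrate barcode pair counted by paired-end Illumina sequencing.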

Regarding MGESLFKGPRDYNPISSSICHLTNESDGHTTSLYGIGFGPFIIRNKHLFRRNNGTLVVQSLHGVFKVKDTTTLQQHLVDGRDMIIIRMPKDFPPFPQKLKFREPQREERICLVTTNFQTKSMSSMVSDTSCTFPSGDGIFWKHWIQTKDGQCGSPLVSTRDGFIVGIHSASNFTNTNNYFTSVPKNFMELLTNQEAQQWVSGWRLNADSVLWGGHKVFMVKPEEPFQPVKEATQL [T44R], the “area with substrate ENLAFQS” value turned out to be 0.0559, the “area with substrate ENLCFQS” value is 0.0677, the “area with substrate ENLDFQS” value was 0.0534 and the “area with substrate ENLFFQS” value was found to be 0.0556. Moreover, the “area with substrate ENLGFQS” value came out at 0.0358, the “area with substrate ENLHFQS” value stood at 0.0472, the “area with substrate ENLIFQS” value came to 0.0509 and the “area with substrate ENLKFQS” value is 0.0456. For the same variant, the “area with substrate ENLLFQS” value is 0.05, the “area with substrate ENLMFQS” value was 0.0496, the “area with substrate ENLNFQS” value turned out to be 0.0509 and the “area with substrate ENLPFQS” value stood at 0.0634. Moreover, the “area with substrate ENLQFQS” value was determined as 0.0617, the “area with substrate ENLSFQS” value was found to be 0.0356 and the “area with substrate ENLVFQS” value worked out at 0.0545.
As to MGESLFKGPRDYNPISSSICHLTNISDGHTTSLYGIGFGPFIITNKHLFRRNNGTLVVQSLHGVFKVKDTTTLQQHLVDGRDMIIIRMPKDFPPFPQKLKFREPQREERICLVTTNFQTKSMSSMVSDTSCTFPSGDGIFWKHWIQTKDGQCGSPLVSTRDGFIVGIHSASNFTNTNNYFTSVPKNFMELLTNQEAQQWVSGWRLNADSVLWGGHKVFMVKPEEPFQPVKEATQL [E25I], the “area with substrate ENLAFQS” value was 0.0487, the “area with substrate ENLCFQS” value was determined as 0.0892, the “area with substrate ENLDFQS” value was 0.0624 and the “area with substrate ENLEFQS” value is 0.0586. Also, the “area with substrate ENLFFQS” value is 0.0821, the “area with substrate ENLGFQS” value turned out to be 0.0798, the “area with substrate ENLHFQS” value amounted to 0.0633 and the “area with substrate ENLIFQS” value amounted to 0.0876. Also, the “area with substrate ENLKFQS” value is 0.0679, the “area with substrate ENLMFQS” value is 0.0636, the “area with substrate ENLNFQS” value worked out at 0.06 and the “area with substrate ENLPFQS” value was 0.0434. Further, the “area with substrate ENLQFQS” value was 0.0776, the “area with substrate ENLRFQS” value was 0.0747, the “area with substrate ENLSFQS” value turned out to be 0.0677 and the “area with substrate ENLVFQS” value was determined as 0.0713. For the same variant, the “area with substrate ENLWFQS” value was determined as 0.0626.
Consider MGESLFKGPRDYNPISSSICHLTNESDGHTTSLYGIGFGPFIITYKHLFRRNNGTLVVQSLHGVFKVKDTTTLQQHLVDGRDMIIIRMPKDFPPFPQKLKFREPQREERICLVTTNFQTKSMSSMVSDTSCTFPSGDGIFWKHWIQTKDGQCGSPLVSTRDGFIVGIHSASNFTNTNNYFTSVPKNFMELLTNQEAQQWVSGWRLNADSVLWGGHKVFMVKPEEPFQPVKEATQL [N45Y], for which the “area with substrate ENLAFQS” value was determined as 0.0576, the “area with substrate ENLDFQS” value is 0.0613, the “area with substrate ENLEFQS” value worked out at 0.0702 and the “area with substrate ENLFFQS” value is 0.0689. In addition, the “area with substrate ENLGFQS” value worked out at 0.072, the “area with substrate ENLHFQS” value worked out at 0.069, the “area with substrate ENLIFQS” value amounted to 0.0528 and the “area with substrate ENLKFQS” value stood at 0.0701. Moreover, the “area with substrate ENLLFQS” value was 0.0645, the “area with substrate ENLMFQS” value is 0.0652, the “area with substrate ENLNFQS” value amounted to 0.0635 and the “area with substrate ENLPFQS” value is 0.0576. Also, the “area with substrate ENLQFQS” value came out at 0.0509, the “area with substrate ENLRFQS” value worked out at 0.0602, the “area with substrate ENLSFQS” value is 0.0577 and the “area with substrate ENLTFQS” value was 0.0847. The “area with substrate ENLVFQS” value is 0.0703.
Take MGESLFKGPRDYNPISSSICHLTNESDGHTTSLYGIGFGPFIITWKHLFRRNNGTLVVQSLHGVFKVKDTTTLQQHLVDGRDMIIIRMPKDFPPFPQKLKFREPQREERICLVTTNFQTKSMSSMVSDTSCTFPSGDGIFWKHWIQTKDGQCGSPLVSTRDGFIVGIHSASNFTNTNNYFTSVPKNFMELLTNQEAQQWVSGWRLNADSVLWGGHKVFMVKPEEPFQPVKEATQL [N45W]: the “area with substrate ENLAFQS” value turned out to be 0.06, the “area with substrate ENLCFQS” value worked out at 0.0512, the “area with substrate ENLDFQS” value stood at 0.064 and the “area with substrate ENLEFQS” value was 0.067. The “area with substrate ENLFFQS” value was determined as 0.0667, the “area with substrate ENLGFQS” value was 0.0713, the “area with substrate ENLHFQS” value is 0.0568 and the “area with substrate ENLIFQS” value was 0.0546. In addition, the “area with substrate ENLKFQS” value worked out at 0.0643, the “area with substrate ENLLFQS” value was found to be 0.0503, the “area with substrate ENLMFQS” value turned out to be 0.0553 and the “area with substrate ENLNFQS” value is 0.0589. For the same variant, the “area with substrate ENLPFQS” value came to 0.0656, the “area with substrate ENLQFQS” value was 0.0528, the “area with substrate ENLRFQS” value was 0.0627 and the “area with substrate ENLSFQS” value was determined as 0.0639. For the same variant, the “area with substrate ENLTFQS” value amounted to 0.0746, the “area with substrate ENLVFQS” value worked out at 0.0573 and the “area with substrate ENLWFQS” value is 0.061.
MGESLFKGPRDYNPISSSICHLTNESDGHTTSLYGIGFGPFIITLKHLFRRNNGTLVVQSLHGVFKVKDTTTLQQHLVDGRDMIIIRMPKDFPPFPQKLKFREPQREERICLVTTNFQTKSMSSMVSDTSCTFPSGDGIFWKHWIQTKDGQCGSPLVSTRDGFIVGIHSASNFTNTNNYFTSVPKNFMELLTNQEAQQWVSGWRLNADSVLWGGHKVFMVKPEEPFQPVKEATQL [N45L]: the “area with substrate ENLAFQS” value turned out to be 0.051, the “area with substrate ENLCFQS” value was found to be 0.0592, the “area with substrate ENLDFQS” value was found to be 0.0669 and the “area with substrate ENLEFQS” value came out at 0.0561. In addition, the “area with substrate ENLFFQS” value worked out at 0.0574, the “area with substrate ENLHFQS” value came to 0.0553, the “area with substrate ENLIFQS” value came out at 0.0587 and the “area with substrate ENLKFQS” value was found to be 0.0593. The “area with substrate ENLLFQS” value amounted to 0.062, the “area with substrate ENLMFQS” value worked out at 0.0615, the “area with substrate ENLNFQS” value was 0.0617 and the “area with substrate ENLPFQS” value came out at 0.0572. Moreover, the “area with substrate ENLQFQS” value is 0.0773, the “area with substrate ENLSFQS” value was 0.045, the “area with substrate ENLVFQS” value was 0.0617 and the “area with substrate ENLWFQS” value was 0.0619.
Regarding MGESLFKGPRDYNPISSSICHLTNESDGHTTSLYGIGFGPFIITNKGLFRRNNGTLVVQSLHGVFKVKDTTTLQQHLVDGRDMIIIRMPKDFPPFPQKLKFREPQREERICLVTTNFQTKSMSSMVSDTSCTFPSGDGIFWKHWIQTKDGQCGSPLVSTRDGFIVGIHSASNFTNTNNYFTSVPKNFMELLTNQEAQQWVSGWRLNADSVLWGGHKVFMVKPEEPFQPVKEATQL [H47G], the “area with substrate ENLAFQS” value turned out to be 0.0562, the “area with substrate ENLCFQS” value is 0.0858, the “area with substrate ENLDFQS” value was 0.0593 and the “area with substrate ENLEFQS” value amounted to 0.066. Moreover, the “area with substrate ENLFFQS” value turned out to be 0.0561, the “area with substrate ENLHFQS” value turned out to be 0.0543, the “area with substrate ENLIFQS” value is 0.0525 and the “area with substrate ENLKFQS” value is 0.0584. Further, the “area with substrate ENLLFQS” value was determined as 0.065, the “area with substrate ENLMFQS” value worked out at 0.0439, the “area with substrate ENLNFQS” value worked out at 0.0632 and the “area with substrate ENLPFQS” value came to 0.0645. Besides, the “area with substrate ENLRFQS” value came out at 0.0542, the “area with substrate ENLSFQS” value is 0.0511, the “area with substrate ENLTFQS” value was found to be 0.0625 and the “area with substrate ENLVFQS” value came out at 0.0548. In addition, the “area with substrate ENLWFQS” value came out at 0.0545.
Turning to MGESLFKGPRDYNPISSSICHLTNESDGHTTKLYGIGFGPFIITNKHLFRRNNGTLVVQSLHGVFKVKDTTTLQQHLVDGRDMIIIRMPKDFPPFPQKLKFREPQREERICLVTTNFQTKSMSSMVSDTSCTFPSGDGIFWKHWIQTKDGQCGSPLVSTRDGFIVGIHSASNFTNTNNYFTSVPKNFMELLTNQEAQQWVSGWRLNADSVLWGGHKVFMVKPEEPFQPVKEATQL [S32K], the “area with substrate ENLAFQS” value came to 0.0588, the “area with substrate ENLDFQS” value was 0.0646, the “area with substrate ENLEFQS” value turned out to be 0.0599 and the “area with substrate ENLFFQS” value was determined as 0.004. Further, the “area with substrate ENLIFQS” value was found to be 0.112, the “area with substrate ENLKFQS” value was found to be 0.0841, the “area with substrate ENLNFQS” value was 0.0614 and the “area with substrate ENLPFQS” value is 0.0461. Moreover, the “area with substrate ENLQFQS” value is 0.0627 and the “area with substrate ENLVFQS” value stood at 0.062.
For MGESLFKGPRDYNPISSSICHLTNESDGHTTFLYGIGFGPFIITNKHLFRRNNGTLVVQSLHGVFKVKDTTTLQQHLVDGRDMIIIRMPKDFPPFPQKLKFREPQREERICLVTTNFQTKSMSSMVSDTSCTFPSGDGIFWKHWIQTKDGQCGSPLVSTRDGFIVGIHSASNFTNTNNYFTSVPKNFMELLTNQEAQQWVSGWRLNADSVLWGGHKVFMVKPEEPFQPVKEATQL [S32F], the “area with substrate ENLAFQS” value came to 0.0666, the “area with substrate ENLDFQS” value came out at 0.0755, the “area with substrate ENLEFQS” value is 0.0408 and the “area with substrate ENLFFQS” value is 0.064. Besides, the “area with substrate ENLGFQS” value was found to be 0.0702, the “area with substrate ENLHFQS” value worked out at 0.0665, the “area with substrate ENLIFQS” value was found to be 0.0783 and the “area with substrate ENLKFQS” value worked out at 0.0629. Besides, the “area with substrate ENLLFQS” value worked out at 0.0753, the “area with substrate ENLNFQS” value came out at 0.0576, the “area with substrate ENLQFQS” value was found to be 0.081 and the “area with substrate ENLRFQS” value amounted to 0.0721. Besides, the “area with substrate ENLSFQS” value was determined as 0.073 and the “area with substrate ENLVFQS” value was 0.0741.

The values are drawn from the supplement of paper PMC12217912.
